Data on ten variants can be found in the supplement of paper PMC12217912.

The list shows a part of the results. The full chains were built here from the parent and the listed change. Values near 0.05 are background.

Sequences and labels used below:
B1: TEV protease; numbered along this chain (parent)
chain: MGESLFKGPRDYNPISSSICHLTNESDGHTTSLYGIGFGPFIITNKHLFRRNNGTLVVQSLHGVFKVKDTTTLQQHLVDGRDMIIIRMPKDFPPFPQKLKFREPQREERICLVTTNFQTKSMSSMVSDTSCTFPSGDGIFWKHWIQTKDGQCGSPLVSTRDGFIVGIHSASNFTNTNNYFTSVPKNFMELLTNQEAQQWVSGWRLNADSVLWGGHKVFMVKPEEPFQPVKEATQL

Variants of B1 are the subject of the assay. The assay is described as follows: raw area under fraction-flipped curve 0-4 h after induction (AUC4h, not background-subtracted), DNA-recorder readout of cleavage of the substrate (dimensionless); higher = more cleavage of the substrate by the protease variant. Conditions: temperature: 34 °C; time window: 0-4 h after rhamnose induction. As for the experimental part:
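In vivo DNA recorder in E. coli TOP10(DE3) ΔrhaA at 34 °C. Each TEVp single-site mutant (parent TEVp 0) is paired with a single-site variant of the 7-mer TEVs (canonical ENLYFQ|S). The substrate sits between flexible linkers in a Bxb1-sfGFP-TEVs-SsrA fusion, so cleavage stabilises Bxb1 and speeds flipping of a recombination array, read by NGS. The value is the raw area under the fraction-flipped curve over 0-4 h after rhamnose induction (AUC4h), with ≥20 reads per time point. It is not background-subtracted; inactive controls average about 0.047.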
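Note: Bxb1 expression induced with 0.2% (w/v) L-rhamnose at OD600 near 0.5, cultures sampled hourly, flipped fraction per protease–substrate barcode pair counted by paired-end Illumina sequencing.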

For the variant MGESLFKGPRDYNPISSSICHLTNESDGHTTSLYGIGFGPFIITNKHLFRRNNGTLVVQSLHGVFKVKDTTTLQQHLVDGRDMIIIRMPKDFPPFPQKLKFREPQREERICLVTTNFQTKSMSSMVSDTSCTFPSGDGIFWKHWIQTKDGQCGSPLVSTRDGFIVGIHSASNFTNTNNRFTSVPKNFMELLTNQEAQQWVSGWRLNADSVLWGGHKVFMVKPEEPFQPVKEATQL [Y179R], the “area with substrate ENLAFQS” value amounted to 0.0689, the “area with substrate ENLDFQS” value is 0.0688, the “area with substrate ENLEFQS” value was 0.0651 and the “area with substrate ENLFFQS” value stood at 0.0761. Besides, the “area with substrate ENLHFQS” value was 0.0535, the “area with substrate ENLIFQS” value was 0.0578, the “area with substrate ENLKFQS” value worked out at 0.0886 and the “area with substrate ENLLFQS” value was 0.0642. Further, the “area with substrate ENLNFQS” value is 0.0675, the “area with substrate ENLQFQS” value worked out at 0.0648 and the “area with substrate ENLSFQS” value was found to be 0.0549.

On to MGESLFKGPRDYNPISSSICHLTNESDGHTTSLYGIGFGPFIITNKHLFRRNNGTLVVQSLHGVFKVKDTTTLQQHLVDGRDMIIIRMPKDFPPFPQKLKFREPQREERICLVTTNFQTKSMSSMVSDTSCTFPSGDGIFWKHWIQTKDGQCGSPLVSTRDGFIVGIHSASNFTNTNNSFTSVPKNFMELLTNQEAQQWVSGWRLNADSVLWGGHKVFMVKPEEPFQPVKEATQL [Y179S], for which the “area with substrate ENLAFQS” value was 0.0561, the “area with substrate ENLDFQS” value was 0.0591, the “area with substrate ENLEFQS” value was 0.0838 and the “area with substrate ENLFFQS” value amounted to 0.071. Besides, the “area with substrate ENLHFQS” value is 0.0552, the “area with substrate ENLIFQS” value was 0.0779, the “area with substrate ENLKFQS” value came to 0.0783 and the “area with substrate ENLPFQS” value was found to be 0.0552. Further, the “area with substrate ENLQFQS” value came out at 0.0649 and the “area with substrate ENLSFQS” value came out at 0.0688.

MGESLFKGPRDYNPISSSICHLTNESDGHTTSLYGIGFGPFIITNKHLFRRNNGTLVVQSLHGVFKVKDTTTLQQHLVDGRDMIIIRMPKDFPPFPQKLKFREPQREERICLVTTNFQTKSMSSMVSDTSCTFPSGDGIFWKHWIQTKDGQCGSPLVSTRDGFIVGIHSASNFTNTNNYFTSWPKNFMELLTNQEAQQWVSGWRLNADSVLWGGHKVFMVKPEEPFQPVKEATQL [V183W]: the “area with substrate ENLAFQS” value was 0.0617, the “area with substrate ENLCFQS” value was found to be 0.0706, the “area with substrate ENLDFQS” value was found to be 0.0576 and the “area with substrate ENLEFQS” value was 0.058. In addition, the “area with substrate ENLFFQS” value stood at 0.0715, the “area with substrate ENLHFQS” value worked out at 0.0516, the “area with substrate ENLIFQS” value amounted to 0.0643 and the “area with substrate ENLKFQS” value worked out at 0.0661. Besides, the “area with substrate ENLNFQS” value stood at 0.0686, the “area with substrate ENLPFQS” value came to 0.0617, the “area with substrate ENLRFQS” value was 0.0603 and the “area with substrate ENLSFQS” value stood at 0.0594. Further, the “area with substrate ENLTFQS” value came to 0.0676 and the “area with substrate ENLWFQS” value stood at 0.054.

For the variant MGESLFKGPRDYNPISSSICHLTNESDGHTTSLYGIGFGPFIITNKHLFRRNNGTLVVQSLHGVFKVKDTTTLQQHLVDGRDMIIIRMPKDFPPFPQKLKFREPQREERICLVTTNFQTKSMSSMVSDTSCTFPSGDGIFWKHWIQTKDGQCGSPLVSTRDGFIVGIHSASNFTNTNNYFTSPPKNFMELLTNQEAQQWVSGWRLNADSVLWGGHKVFMVKPEEPFQPVKEATQL [V183P], the “area with substrate ENLAFQS” value is 0.0633, the “area with substrate ENLCFQS” value turned out to be 0.0772, the “area with substrate ENLDFQS” value was found to be 0.0611 and the “area with substrate ENLEFQS” value is 0.121. Besides, the “area with substrate ENLFFQS” value was determined as 0.0659, the “area with substrate ENLHFQS” value amounted to 0.0506, the “area with substrate ENLIFQS” value was found to be 0.0971 and the “area with substrate ENLKFQS” value came to 0.0603. The “area with substrate ENLLFQS” value is 0.054, the “area with substrate ENLNFQS” value amounted to 0.0402, the “area with substrate ENLPFQS” value was 0.042 and the “area with substrate ENLQFQS” value came out at 0.0574. Also, the “area with substrate ENLSFQS” value is 0.0651 and the “area with substrate ENLWFQS” value turned out to be 0.0603.

For the variant MGESLFKGPRDYNPISSSICHLTNESDGHTTSLYGIGFGPFIITNKHLFRRNNGTLVVQSLHGVFKVKDTTTLQQHLVDGRDMIIIRMPKDFPPFPQKLKFREPQREERICLVTTNFQTKSMSSMVSDTSCTFPSGDGIFWKHWIQTKDGQCGSPLVSTRDGFIVGIHSASNFTNTNNYFTSDPKNFMELLTNQEAQQWVSGWRLNADSVLWGGHKVFMVKPEEPFQPVKEATQL [V183D], the “area with substrate ENLAFQS” value is 0.0594, the “area with substrate ENLCFQS” value was found to be 0.0523, the “area with substrate ENLDFQS” value was determined as 0.0407 and the “area with substrate ENLEFQS” value amounted to 0.0439. For the same variant, the “area with substrate ENLFFQS” value amounted to 0.0466, the “area with substrate ENLHFQS” value stood at 0.0626, the “area with substrate ENLKFQS” value amounted to 0.0643 and the “area with substrate ENLMFQS” value is 0.0633. In addition, the “area with substrate ENLNFQS” value was 0.0526, the “area with substrate ENLPFQS” value is 0.0388, the “area with substrate ENLRFQS” value was 0.055 and the “area with substrate ENLVFQS” value amounted to 0.0536.

As for MGESLFKGPRDYNPISSSICHLTNESDGHTTSLYGIGFGPFIITNKHLFRRNNGTLVVQSLHGVFKVKDTTTLQQHLVDGRDMIIIRMPKDFPPFPQKLKFREPQREERICLVTTNFQTKSMSSMVSDTSCTFPSGDGIFWKHWIQTKDGQCGSPLVSTRDGFIVGIHSASNFTNTNNYFTSAPKNFMELLTNQEAQQWVSGWRLNADSVLWGGHKVFMVKPEEPFQPVKEATQL [V183A], the “area with substrate ENLAFQS” value stood at 0.0451, the “area with substrate ENLCFQS” value turned out to be 0.0655, the “area with substrate ENLDFQS” value was 0.0595 and the “area with substrate ENLFFQS” value came to 0.076. The “area with substrate ENLGFQS” value was 0.059, the “area with substrate ENLHFQS” value came out at 0.0676, the “area with substrate ENLIFQS” value was 0.0777 and the “area with substrate ENLKFQS” value worked out at 0.0653. Further, the “area with substrate ENLMFQS” value was found to be 0.0736, the “area with substrate ENLNFQS” value turned out to be 0.0581, the “area with substrate ENLPFQS” value worked out at 0.0312 and the “area with substrate ENLQFQS” value was found to be 0.0533. The “area with substrate ENLRFQS” value amounted to 0.0706 and the “area with substrate ENLSFQS” value is 0.0555.

Consider MGESLFKGPRDYNPISSSICHLTNESDGHTTSLYGIGFGPFIITNKHLFRRNNGTLVVQSLHGVFKVKDTTTLQQHLVDGRDMIIIRMPKDFPPFPQKLKFREPQREERICLVTTNFQTKSMSSMVSDTSCTFPSGDGIFWKHWIQTKDGQCGSPLVSTRDGFIVGIHSASNFTNTNNYFTSVPKNDMELLTNQEAQQWVSGWRLNADSVLWGGHKVFMVKPEEPFQPVKEATQL [F187D], for which the “area with substrate ENLAFQS” value is 0.0433, the “area with substrate ENLEFQS” value came out at 0.0546, the “area with substrate ENLFFQS” value amounted to 0.0552 and the “area with substrate ENLHFQS” value was 0.0699. Also, the “area with substrate ENLIFQS” value stood at 0.0673, the “area with substrate ENLKFQS” value is 0.0614, the “area with substrate ENLLFQS” value worked out at 0.05 and the “area with substrate ENLMFQS” value came out at 0.0586. For the same variant, the “area with substrate ENLNFQS” value turned out to be 0.0608, the “area with substrate ENLQFQS” value was 0.0583 and the “area with substrate ENLTFQS” value is 0.044.

With MGESLFKGPRDYNPISSSICHLTNESDGHTTSLYGIGFGPFIITNKHLFRRNNGTLVVQSLHGVFKVKDTTTLQQHLVDGRDMIIIRMPKDFPPFPQKLKFREPQREERICLVTTNFQTKSMSSMVSDTSCTFPSGDGIFWKHWIQTKDGQCGSPLVSTRDGFIVGIHSASNFTNTPNYFTSVPKNFMELLTNQEAQQWVSGWRLNADSVLWGGHKVFMVKPEEPFQPVKEATQL [N177P], the “area with substrate ENLAFQS” value worked out at 0.0605, the “area with substrate ENLDFQS” value was determined as 0.0702, the “area with substrate ENLEFQS” value turned out to be 0.0581 and the “area with substrate ENLFFQS” value was determined as 0.032. Besides, the “area with substrate ENLHFQS” value is 0.0668, the “area with substrate ENLLFQS” value amounted to 0.0658, the “area with substrate ENLMFQS” value was determined as 0.0708 and the “area with substrate ENLNFQS” value worked out at 0.066. The “area with substrate ENLPFQS” value came out at 0.067, the “area with substrate ENLSFQS” value was 0.0648, the “area with substrate ENLTFQS” value turned out to be 0.062 and the “area with substrate ENLVFQS” value is 0.0576. The “area with substrate ENLWFQS” value is 0.0678.

In the case of MGESLFKGPRDYNPISSSICHLTNESDGHTTSLYGIGFGPFIITNKHLFRRNNGTLVVQSLHGVFKVKDTTTLQQHLVDGRDMIIIRMPKDFPPFPQKLKFREPQREERICLVTTNFQTKSMSSMVSDTSCTFPSGDGIFWKHWIQTKDGQCGSPLVSTRDGFIVGIHSASNFTNTCNYFTSVPKNFMELLTNQEAQQWVSGWRLNADSVLWGGHKVFMVKPEEPFQPVKEATQL [N177C], the “area with substrate ENLAFQS” value turned out to be 0.0831, the “area with substrate ENLDFQS” value was 0.0555, the “area with substrate ENLFFQS” value came to 0.122 and the “area with substrate ENLHFQS” value amounted to 0.0689. In addition, the “area with substrate ENLKFQS” value was 0.137, the “area with substrate ENLMFQS” value worked out at 0.122, the “area with substrate ENLNFQS” value was found to be 0.0903 and the “area with substrate ENLPFQS” value was 0.0583. Moreover, the “area with substrate ENLVFQS” value was found to be 0.134.

Consider MGESLFKGPRDYNPISSSICHLTNESDGHTTSLYGIGFGPFIITNKHLFRRNNGTLVVQSLHGVFKVKDTTTLQQHLVDGRDMIIIRMPKDFPPFPQKLKFREPQREERICLVTTNFQTKSMSSMVSDTSCTFPSGDGIFWKHWIQTKDGQCGSPLVSTRDGFIVGIHSASNFKNTNNYFTSVPKNFMELLTNQEAQQWVSGWRLNADSVLWGGHKVFMVKPEEPFQPVKEATQL [T174K], for which the “area with substrate ENLAFQS” value came to 0.0551, the “area with substrate ENLDFQS” value turned out to be 0.05, the “area with substrate ENLFFQS” value came to 0.0983 and the “area with substrate ENLKFQS” value came out at 0.0885. In addition, the “area with substrate ENLMFQS” value was 0.0714, the “area with substrate ENLNFQS” value worked out at 0.0604 and the “area with substrate ENLPFQS” value was 0.0524.
